Data published in PubChem BioAssay AID504333 (National Center for Advancing Translational Sciences (NCATS), 2011).
Out of some 360,000 compounds screened, about 16,000 (4.4%) were called active. This list was built around the results that the source calls inconclusive (neither active nor inactive); the mix of calls is not that of the screen. Calls follow the shape of the dose curve; as a rule, active = well fitted inhibition curve with a large enough effect; inconclusive = small, poorly fitted or top-dose-only effect; inactive = no such curve, though single readings can be large or run the other way. Potencies beside an inconclusive call are fits to weak or partial responses and may not hold up.

biological target: Bromodomain adjacent to zinc finger domain protein 2B (Homo sapiens) (UniProt Q9UIF8); test: qHTS Assay for Inhibitors of BAZ2B; conditions: AlphaScreen BAZ2B-H3K14Ac peptide displacement; series mostly up to 114 µM; also: nearly all actives have a fitted effect of over 60% in size
Outline: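 Complex of BAZ2B and biotin-H3K14Ac (50 nM apiece) forms over 30 min at RT, then faces library compounds up to 110 uM for another 30 min; AlphaScreen beads added, 20 min dark incubation, luminescence read.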
Potency is read from the fitted curve at half-maximal effect; tags tell the direction and shape of the fitted curve.

Sequence of UniProt Q9UIF8 (Q9UIF8 whole entry, looked up, the tested form may be a part): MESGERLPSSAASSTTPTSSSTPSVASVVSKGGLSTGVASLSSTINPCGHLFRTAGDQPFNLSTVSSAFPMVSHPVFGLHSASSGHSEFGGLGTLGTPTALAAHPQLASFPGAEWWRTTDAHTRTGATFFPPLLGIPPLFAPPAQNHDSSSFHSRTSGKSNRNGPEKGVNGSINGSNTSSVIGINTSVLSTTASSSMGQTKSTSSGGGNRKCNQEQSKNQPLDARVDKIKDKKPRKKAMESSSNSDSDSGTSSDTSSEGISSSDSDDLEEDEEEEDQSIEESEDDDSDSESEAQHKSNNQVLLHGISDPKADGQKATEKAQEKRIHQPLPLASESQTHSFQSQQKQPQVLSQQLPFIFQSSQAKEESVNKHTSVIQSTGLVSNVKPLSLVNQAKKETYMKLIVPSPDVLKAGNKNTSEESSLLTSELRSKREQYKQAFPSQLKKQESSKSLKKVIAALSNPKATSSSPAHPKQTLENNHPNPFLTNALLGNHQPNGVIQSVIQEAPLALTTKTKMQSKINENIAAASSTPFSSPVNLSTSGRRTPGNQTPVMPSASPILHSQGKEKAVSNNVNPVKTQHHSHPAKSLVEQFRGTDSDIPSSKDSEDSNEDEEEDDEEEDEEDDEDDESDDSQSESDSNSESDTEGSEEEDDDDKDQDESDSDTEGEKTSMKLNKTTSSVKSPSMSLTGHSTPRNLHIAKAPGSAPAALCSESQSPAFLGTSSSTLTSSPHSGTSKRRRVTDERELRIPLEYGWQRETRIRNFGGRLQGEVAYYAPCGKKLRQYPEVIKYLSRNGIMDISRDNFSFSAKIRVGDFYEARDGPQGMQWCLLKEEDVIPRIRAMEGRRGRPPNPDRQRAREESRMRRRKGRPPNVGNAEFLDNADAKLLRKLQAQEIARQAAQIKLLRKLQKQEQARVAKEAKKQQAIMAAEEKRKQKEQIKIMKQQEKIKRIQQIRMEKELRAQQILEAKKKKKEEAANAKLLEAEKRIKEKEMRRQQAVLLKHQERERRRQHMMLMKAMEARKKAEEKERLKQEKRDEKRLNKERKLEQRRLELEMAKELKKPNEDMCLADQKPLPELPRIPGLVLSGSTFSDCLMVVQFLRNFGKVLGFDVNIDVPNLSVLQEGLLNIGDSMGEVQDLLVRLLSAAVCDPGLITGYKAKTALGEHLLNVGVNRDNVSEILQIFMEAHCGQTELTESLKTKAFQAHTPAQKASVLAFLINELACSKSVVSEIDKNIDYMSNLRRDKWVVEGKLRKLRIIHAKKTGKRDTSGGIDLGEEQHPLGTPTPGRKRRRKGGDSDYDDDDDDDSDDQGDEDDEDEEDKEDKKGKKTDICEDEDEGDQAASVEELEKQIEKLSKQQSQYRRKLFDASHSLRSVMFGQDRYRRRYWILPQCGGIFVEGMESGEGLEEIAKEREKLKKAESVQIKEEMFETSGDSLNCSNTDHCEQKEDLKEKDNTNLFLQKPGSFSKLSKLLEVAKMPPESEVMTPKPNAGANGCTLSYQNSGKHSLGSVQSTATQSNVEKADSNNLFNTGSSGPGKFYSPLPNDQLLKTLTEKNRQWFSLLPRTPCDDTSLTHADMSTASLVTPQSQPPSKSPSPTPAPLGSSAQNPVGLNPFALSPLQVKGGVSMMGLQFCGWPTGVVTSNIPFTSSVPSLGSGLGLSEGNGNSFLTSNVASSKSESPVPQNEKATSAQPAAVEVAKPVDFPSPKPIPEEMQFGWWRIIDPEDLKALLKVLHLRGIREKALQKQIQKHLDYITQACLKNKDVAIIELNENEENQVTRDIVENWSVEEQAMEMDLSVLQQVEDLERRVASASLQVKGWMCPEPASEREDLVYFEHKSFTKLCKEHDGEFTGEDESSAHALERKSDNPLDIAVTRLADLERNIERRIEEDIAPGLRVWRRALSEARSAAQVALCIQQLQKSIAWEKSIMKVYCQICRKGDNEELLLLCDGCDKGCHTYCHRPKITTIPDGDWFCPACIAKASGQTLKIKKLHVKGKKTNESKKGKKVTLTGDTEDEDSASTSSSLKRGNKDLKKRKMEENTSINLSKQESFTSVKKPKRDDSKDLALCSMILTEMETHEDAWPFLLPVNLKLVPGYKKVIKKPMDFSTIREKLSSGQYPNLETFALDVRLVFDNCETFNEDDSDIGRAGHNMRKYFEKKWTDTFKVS

Row | Structure (SMILES) | Potency
1 | COc1ccc(Nc2ccc(C(N)=O)cc2[N+](=O)[O-])cc1 | inconclusive: 44.7 µM [inhibitor, partial curve]
2 | COc1ccc(N(Cc2ccc(N(C)C)cc2)C(=O)c2ccc(S(C)(=O)=O)cc2)cc1 | active: 39.8 µM
3 | O=C(CCl)Nc1ccc(-c2ccccc2)cc1 | inactive
4 | COc1cccc(/C=C2\Oc3cc(OCC(=O)N4CCC[C@H]4C(=O)O)ccc3C2=O)c1 | inactive
5 | Cc1cc(C)nc(SCc2cc(=O)c(OC(=O)c3cc([N+](=O)[O-])ccc3Cl)co2)n1 | inconclusive: 79.4 µM [inhibitor, single point]
6 | Cc1cc(NC(=O)CSc2ccc(F)cc2)no1 | inactive
7 | N/C(=N\OC(=O)c1ccc(Cl)cc1[N+](=O)[O-])c1ccccn1 | inactive
8 | Cn1nnnc1SCCCNCc1cc(Br)ccc1OCc1ccccc1 | inconclusive: 79.4 µM [inhibitor, single point]
9 | CCOc1cccc(-c2c(C(=O)N/N=C/c3ccoc3)nnn2-c2nonc2N)c1 | active: 79.4 µM
10 | O=C(/C=C/Nc1ccc([N+](=O)[O-])cc1Br)c1cccc2ccccc12 | inactive
11 | Cc1noc(C)c1COc1ccc(C(=O)OCC(=O)Nc2c(C)n(C)n(-c3ccccc3)c2=O)cc1 | inconclusive: 89.1 µM [inhibitor, single point]
12 | CCOc1ccc(Nc2nc(Cc3nnc(SCC(=O)N(CC)CC)n3C)cs2)cc1 | inconclusive: 89.1 µM [inhibitor, single point]
13 | CC1(C)CC(C)(c2ccc(O)cc2O)N(c2ccc3ccccc3c2)C(=S)N1 (stereo unspecified) | active: 44.7 µM
14 | CC(C)C1=Nc2cccc3cccc(c23)N1 | inconclusive: 50.1 µM [inhibitor, partial curve]
15 | Cc1ccc(SCc2c(C#N)c3ccccc3n2C)cc1 | inactive
16 | O=C(NNC(=O)c1cc(Br)ccc1O)c1csc(N2CCOCC2)n1 | inconclusive: 89.1 µM [inhibitor, single point]
17 | O=C1CCCN1CCCNC(=S)Nc1ccc(Nc2ccccc2)cc1 | inconclusive: 70.8 µM [inhibitor, single point]
18 | COc1ccc(N2CCN(C(CNC(=O)c3cccs3)c3ccco3)CC2)cc1 (stereo unspecified) | inconclusive: 44.7 µM [inhibitor, partial curve]
19 | C=CS(=O)c1sc(Cl)c(N2CCOCC2)c1[N+](=O)[O-] (stereo unspecified) | active: 39.8 µM
20 | CCC(=O)Nc1cccc(NC(=S)NC(=O)Cc2ccccc2)c1 | inconclusive: 89.1 µM [inhibitor, single point]
21 | O=C(CC1C(=O)OCCN1Cc1ccccc1)Nc1cccc(Cl)c1 (stereo unspecified) | inactive
22 | COc1ccc(CN2CCc3cc(OC)c(OC)cc3C2)cc1O | inconclusive: 79.4 µM [inhibitor, single point]
23 | CCCOc1cccc(C(=O)Nc2cc(-c3nc4ccccc4[nH]3)ccc2C)c1 | inconclusive: 79.4 µM [inhibitor, single point]

Row | Structure (SMILES) | Potency
24 | CCCc1cnc2c(c1SCc1cccc(C)c1)c(=O)n(C)c(=O)n2C | inactive
25 | COCCCNC(=O)C(=O)NCC(c1ccco1)N1CCN(c2ccc(OC)cc2)CC1 (stereo unspecified) | inconclusive: 79.4 µM [inhibitor, single point]
26 | O=c1cc(CCl)nc2scc(-c3ccccc3)n12 | inconclusive: 79.4 µM [inhibitor, single point]
27 | C#CCOCCOCCOCCNc1nc(N2CCN(C(=O)[C@H](Cc3cc4ccccc4[nH]3)n3cc([C@@H](N)C(C)CC)nn3)CC2)nc(N2CCN(C(=O)[C@H](CCCCN)n3cc([C@@H](N)CO)nn3)CC2)n1 (stereo partly specified) | active: 25.1 µM
28 | CC(C)Cn1c(-c2ccncc2)n[nH]c1=S | inconclusive: 79.4 µM [inhibitor, single point]
29 | O=C(COC(=O)CNC(=O)c1ccc(Cl)cc1Cl)Nc1cccc(S(=O)(=O)N2CCCC2)c1 | inconclusive: 79.4 µM [inhibitor, single point]
30 | COc1ccc(C(=O)CSc2nc3cc(C(=O)NC4CCCC4)ccc3c(=O)n2CC2CCCO2)cc1 (stereo unspecified) | inactive
31 | Nc1nc(-c2ccco2)nc(N2CCCCC2)n1 | inconclusive: 89.1 µM [inhibitor, single point]
32 | CCOc1ccc(-c2cccc(NC(=O)COc3ccccc3)c2)nn1 | inactive
33 | Cc1ccc(CNC(=O)Cc2c(C(=O)O)c(C)cn2C)cc1 | inactive
34 | COc1ccc(C(=O)c2sc(NC(C)C)nc2N)cc1OC | inconclusive: 89.1 µM [inhibitor, single point]
35 | COc1cccc(NC(=O)CSc2nnc(NC(=O)C3CC3)s2)c1 | inactive
36 | CN1CCN(C(=S)Nc2ccc(Oc3ccccc3)cc2)CC1 | inconclusive: 79.4 µM [inhibitor, partial curve]
37 | COc1cccc(CN(Cc2cccnc2)S(=O)(=O)c2ccc(-n3cnnn3)c(C)c2)c1OC | inconclusive: 89.1 µM [inhibitor, single point]
38 | COc1ccc(C(=O)Nc2ccc(NC(=O)c3cccs3)cn2)cc1 | inconclusive: 79.4 µM [inhibitor, partial curve]
39 | COc1cc(OC)c(NC(=O)Cc2c(C(=O)O)c(C)cn2C)cc1Cl | inconclusive: 79.4 µM [inhibitor, partial curve]
40 | CC(=O)N1CCCC1c1nc2ccccc2n1Cc1c(F)cccc1Cl (stereo unspecified) | inconclusive: 89.1 µM [inhibitor, single point]
41 | N#CC1=C2N=C(N)c3c(sc4c3CCCCC4)N2C2=C(C(=O)CCC2)C1c1ccccc1 (stereo unspecified) | active: 44.7 µM
42 | Cc1ccc(NCc2nnc(SCc3ccc(C#N)cc3)n2Cc2ccco2)c(C)c1 | inconclusive: 44.7 µM [inhibitor, partial curve]
43 | CC1(C)Cc2c(sc3ncnc(NN)c23)CO1 | active: 79.4 µM
44 | O=C(CN1CCCCC1)Nc1cc(S(=O)(=O)N2CCOCC2)ccc1N1CCCC1 | inactive
45 | Cc1ccc(-c2nc(N)sc2-c2ccc(C)cc2)cc1 | inconclusive: 44.7 µM [inhibitor, partial curve]
46 | CCSc1nnc(N2C(=O)C(O)=C(C(=O)c3ccco3)C2c2cccc(OC)c2)s1 (stereo unspecified) | inconclusive: 28.2 µM [inhibitor, partial curve]
